The supplement of paper PMC11417369
This is one part of the list.

These sequences were tested on PfHDP1 homeodomain (GST-tagged) (assay: gcPBM binding intensity (ln(normalized median fluorescence intensity)); higher = stronger DNA binding).
Outline: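 Binding intensity is defined as the maximum Masliner-normalised natural-log median intensity across replicate spots for either probe orientation. It was measured on an Agilent 4 × 180k array of primer-extended double-stranded 36-bp intergenic genomic probes and negative controls, to which GST-tagged P. falciparum DNA-binding domains made in E. coli were applied for 1 h in 1× PBS with 1% milk, 0.2 mg/ml BSA, 0.5% salmon testes DNA and 0.03% Triton X-100. Detection was by Alexa488 anti-GST antibody and scanning at 488 nm.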

Row | Sequence | gcPBM binding intensity (ln)
1 | TGTTATTAAAATATAGTGCATAATTAACCATTATAA [GTGCAC_site9594] | 8.69
2 | CACACGCACGGACACACACACATATAAAATCTATAT [CACACA_site6428] | 7.73
3 | TACTTATATACACATGTATATTATATATATAATATA [XGTACX_negctrl_site335] | 7.12
4 | TAATAATATATTTGTAGTACACAATTTTTTATAACT [XGTACX_site3951] | 6.34
5 | TACTATAACAGACATACACACAAAAAAAAAAAAAAA [CACACA_site538] | 6.29
6 | TTTCATATATATGAAACACACAAAGGAAAAAAAATT [CACACA_site4144] | 6.92
7 | ATATAATAAAATTAATGTACATATATGTATTATATA [XGTACX_site3283] | 6.52
8 | GCTCATATGACAACAACACACAAAAAAATAAAATGA [CACACA_site714] | 6.84
9 | AACATAATCTCATATACACACAAAAATATTGAAATA [CACACA_site7085] | 6.48
10 | ACAAGTTTATTTGTTGCACACATATAAGTAGAGAAA [CACACA_site8994] | 9.49
11 | AAAAAAAAAAAACACACACACATAGACCTCCAATAG [CACACA_site3562] | 6.92
12 | AATAAATAAATAAATAAAACAAAGGGATTACATACA [TGCATGCA_negctrl_site513] | 6.64
13 | CACAACATATATATATATATATATATATATATGTGT [CACACA_negctrl_site28] | 8.13
14 | ATATTTTGTTATGTAGATGTTGGTAGGAATTTTGGT [CACACA_negctrl_site1104] | 6.63
15 | TACTTTTTAGGAAAGTGTACAAGCATATAAGGAATA [XGTACX_site2834] | 6.83
16 | TTAAAAAAATATTGAAGTACACACATTATAAACTTT [XGTACX_site3548] | 6.33
17 | TATATTTGTTAATTTTGTACGTATGGATATACATAA [XGTACX_site5100] | 6.55
18 | TATAAATATAGAATTACACACAATGTTCTATAAATA [CACACA_site7508] | 6.16
19 | AGGTAGAAAAAAGACACACACATTATATATATATAT [CACACA_site4367] | 9.17

Row | Sequence | gcPBM binding intensity (ln)
20 | TAATATAAAGAAATATCAATAATTTGGGCAAATGCC [GTGCAC_negctrl_site621] | 6
21 | ATATGCTACATTATATGTACACACATATACATATAT [XGTACX_site1656] | 7.15
22 | AAGGTGGTTATTAAATGTACACAGACATATACAAAA [XGTACX_site3007] | 6.77
23 | TTTTATGCATGTGAAGTGCAAAATAAAAAATAAAAT [GTGCAC_site9612] | 9.13
24 | TGTTAATATATCATTATGTTATAGGTTCAGCTGGGA [CACACA_negctrl_site401] | 6.38
25 | AATATATAAATTGACACACACATATATACATATATA [CACACA_site1213] | 6.71
26 | TTTGTGGTTACATGTGCACACACTTATTTCGTTCTT [CACACA_site1435] | 9.99
27 | GATATGTTTTCCTAGGTTCATGATGATAGGTAGTTT [XGTACX_negctrl_site217] | 6.69
28 | ATATATATTAAAAATAGTACATATAATAAAAATCAT [XGTACX_site4265] | 6.57
29 | TGTATATGTTTAATTAGTACATATAAAGTAACAATA [XGTACX_site1207] | 6.51
30 | ATATGAAATATATGTAGTACACATAATTAAAAGTAG [XGTACX_site6490] | 6.74
31 | AACGATATAGGTACTACACACATTATGTCATCCTAT [CACACA_site7205] | 6.42
32 | TACATATTCCTACAAATGTATAAATTATAAATATTA [XGTACX_negctrl_site30] | 6.11
33 | AATTTTTATATAATTTAACACACATTTCATATAAAA [CACACA_site9018] | 6.49
34 | TTAGGATATTTATTTCGTACATATATTTTTAATTGT [XGTACX_site582] | 5.85
35 | TATAAATTATTTATCACACATAAAACAAAAATAAGA [CACACA_site5493] | 6.9
36 | TACTTCATATAATTAGCACACAATAATTTCTCATTT [CACACA_site2872] | 7.53
37 | AGTTATTTTATAGAATATGAATAATTTTACTTTTCA [XGTACX_negctrl_site403] | 5.79
38 | TTCATTCATTTTATTACACACAAAAAAAAAAAAAAA [CACACA_site3680] | 6.39

Row | Sequence | gcPBM binding intensity (ln)
39 | AATTTCATTTTACTTATCTAATATTTATAATCTTTT [CACACA_negctrl_site636] | 6.32
40 | AAAAAAAAAGGTACTACACACTATTCTCAATAGAAA [CACACA_site6193] | 6.26
41 | TTCGTCTTTTTTCTCACACACCCTTTTTATTAAAAG [CACACA_site7225] | 7.3
42 | ATAATACAAAACACAAGTACATAAATTAAAAAGATG [XGTACX_site7839] | 7.11
43 | AAAGAATACATATATTGTACATATATATATACCGTT [XGTACX_site6250] | 6.39
44 | AGAATTAAAATAAAGGTGCATTTTTTTGTTTCATGT | 8.48
45 | AGTACGTAAATTATAATACACACTATAGGATATTCT [CACACA_site2559] | 6.51
46 | TTTTCTACATCTTGTTGTACGAAAAATAAAAAAAAT [XGTACX_site4620] | 6.61
47 | GGAATATGTATATTTTGTACGTATACATTTTTTGGG [XGTACX_site7681] | 7.17
48 | GTTATTGTAAAAAGATTACACACGTTCTATATACTT [CACACA_site2473] | 6.49
49 | GATATATTTTATATATGTACATACAGTGGTAAATAT [XGTACX_site1324] | 6.59
50 | TTTATACAAAAAAACAAAATCAAACAAAAAAAAAAA [CACACA_negctrl_site252] | 6.13
51 | TTTTAAACAGGACACACACACATATATATATATATA [CACACA_site4664] | 9.36
52 | AAAATTATATATTTTAGTACATAAAATATTGACATA [XGTACX_site2581] | 6.3
53 | ATGTAATGTTATGTTATGTTTTTTTTTTTTTTGTGT [CACACA_negctrl_site1264] | 6.24
54 | ATTTCCCCTTTTTATTGTACATTTTTATTTGTTACT [XGTACX_site4845] | 7.49
55 | AAAATATTTATGTATGCATGTTGTAATATTTCTTTA [TGCATGCA_site296] | 6.46
56 | TAAAAAAAAACAGAAACACACATTATTCATATATAT [CACACA_site2049] | 6.51
